Several values for one entry are separate records, joined by “and”; a condition that tells them apart may be missing. Equal values may be shown once.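 Assay format: 96-well plates, 48-hour exposure. GI50 marks 50% less growth. TGI is the concentration that stops growth completely.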 Square brackets hold non-standard residues; d marks the D form. Peptide text beside a SMILES is read from it. * marks the point of attachment. ξ: configuration not given here. NMeF = CN[C@@H](Cc1ccccc1)C(=O)O; NMeV = CN[C@H](C(=O)O)C(C)C; ξNMeV = CNC(C(=O)O)C(C)C; Boc = CC(C)(C)OC(=O)*; OBn = c1ccc(CO*)cc1

In this assay the test system is NCI-H322M lung. Nature of the assay: NCI tumour cell line growth inhibition, 48 h.
Regarding `C/C(=N\NC(N)=S)c1nc2ncccc2[nH]1`, the TGI was greater than 100 µM.
`O=C1c2cccnc2-c2nccc3c2c1nc1ccccc13` returned a TGI of 0.989 µM.
Regarding `COc1cc(O)c(C(=O)/C=C/c2ccc(OC)c(OCc3ccccc3)c2)c(OC)c1`, the TGI was greater than 100 µM.
The molecule `COc1ccc([C@H]2CC3C(=O)N(c4ccc(OC)cc4)C(=O)C3c3[nH]c4ccccc4c32)cc1` (stereo partly specified) yielded a TGI greater than 100 µM.
`N=C(CC(=O)Nc1ccccn1)c1ccccc1` returned a TGI greater than 100 µM.
The same measure, in the same setting: in the case of `CN(C)CCC[N+]1=Nc2cccc3cccc(c23)N1` it was greater than 100 µM.
For `CC1=C(C(=O)Nc2ccc(Cl)c(Cl)c2)C(c2cccc(Cl)c2)NC(=S)N1` (stereo unspecified), the GI50 is 12.3 µM and the TGI amounted to 37.3 µM.
As for `O=C(O)c1nn(-c2ccccc2)nc1-c1nn(-c2ccccc2)nc1C(=O)O`, the TGI was greater than 100 µM.
On to `COc1ccc2nc3ccccc3c(NCCNCC(C)O)c2c1` (stereo unspecified), for which the GI50 is 0.288 µM and the TGI worked out at 1.43 µM.
Consider `Cn1c(I)c(C#C[Si](C)(C)C)c(=O)[nH]c1=O`, for which the GI50 is 17.3 µM and the TGI came to 32.3 µM.
`COc1cc(O)c(Cc2ccccc2O)c(O)c1C(=O)CCc1ccccc1` returned a TGI of 24.1 µM.
For the molecule `CCO/C(O)=c1/s/c(=C(\C#N)c2nc3ccccc3[nH]2)n(-c2ccccc2)c1=N`, the TGI is greater than 100 µM.
The molecule `N#COc1ccc(Oc2ccc(OC#N)cc2)cc1` yielded a TGI greater than 100 µM.
For the molecule `COC(=O)c1cc2cc(/C=C3/SC(=S)N(N(C(C)=O)C(C)=O)C3=O)oc2n1Cc1ccccc1`, the GI50 was 3.12 µM and the TGI turned out to be 23.2 µM.
For the molecule `Oc1[nH]c2ccccc2c1C=Nc1ccc(-n2cncn2)cc1`, the GI50 was greater than 25 µM and the TGI was greater than 25 µM.
In the case of `COC(=O)[C@@]12C3=NO[C@]1(C(=O)OC)C(O[Si](C)(C)C(C)(C)C)[C@@H](OC(C)=O)[C@@H](OC(C)=O)[C@@H]2[C@@H](OCc1ccccc1)CC3` (stereo partly specified), the TGI was greater than 100 µM.
Regarding `COc1ccc(-c2nnc3n(C)c4ccccc4n3c2=O)cc1`, the TGI was greater than 100 µM.
Take `COc1ccc(C(=O)C(C(=O)C(=O)NCCCNC(=O)C(=O)C(C(=O)c2ccc(OC)cc2)c2ccc(OC)cc2)c2ccc(OC)cc2)cc1` (stereo unspecified): the TGI is greater than 100 µM.
Turning to `NS(=O)(=O)c1ccc(N=Nc2c[nH]c(=O)c(O)c2)cc1`, the TGI was greater than 100 µM.
With `N#Cc1c(N)nc(N2CCOCC2)c(C#N)c1-c1c(Cl)cccc1Cl`, the GI50 is 33.2 µM and the TGI is greater than 100 µM.
`CCN(CC)CCC1CCCCN1CC(=O)N1c2cc(Cl)ccc2NC(=O)CC1C` (stereo unspecified) gave a TGI greater than 100 µM.
`COC(=O)c1c(O)ccc2c1c1c(n2Cc2cccc(C)c2)C(=O)c2ccccc2C1` came in with a TGI greater than 75 µM.
Still for that read-out and setting: in the case of `CCN(CC)C(=S)SS(C)(=O)=O` it was greater than 100 µM; in that of `CC(C)(C)OC(=O)N1N=CCC1c1ccccc1` (stereo unspecified), greater than 100 µM.
With `C(=N\Nc1ccc2ccccc2n1)/c1ccccn1`, the GI50 was 0.271 µM and the TGI was determined as 4.48 µM.
On to `Cc1ccc(S(=O)(=O)N(CCNC(=O)c2cccc(O)c2O)c2cc3c4c(c2)Oc2cccc5c2C4(C)c2c(cccc2O3)O5)cc1`, for which the TGI was greater than 100 µM.
On to `O=c1[nH]c(=O)n(C2CC(O)C(CO)O2)cc1Br` (stereo unspecified), for which the TGI was greater than 100 µM.
`C=C(C)C(=O)Nc1ccc(-c2c(-c3ccc(Oc4nccc(C)n4)c(F)c3)c3c(N)ncnc3n2C)cc1`: the GI50 is 3.5 µM and the TGI came out at 16.1 µM.
For the molecule `Fc1ccc(Nc2nc(Nc3ccc(-c4nc5ccccc5[nH]4)cc3)c3cn[nH]c3n2)cc1`, the GI50 is 2.09 µM and the TGI worked out at 6.01 µM.
`COc1cc2c[n+](C)c3c4cc(OC)c(OCc5ccccc5)cc4c(OCc4ccccc4)cc3c2cc1OC` registered a TGI of 75.9 µM.
`CCN(CC)c1ccc(C2N3CCCCC3[C@@H]3c4[nH]c5ccccc5c4CCN23)cc1` (stereo partly specified): the TGI was greater than 100 µM.
The molecule `C(=N\NC1=NCCN1)/c1ccc2ccccc2c1` gave a TGI of 31.9 µM.
In the case of `Cc1cc(N2CCOCC2)nc(NCc2cc(Nc3ccnc4cc(Cl)ccc34)ccc2F)n1`, the GI50 was 1.65 µM and the TGI was found to be 3.32 µM.
Turning to `CC(=O)c1c(C)c2cnc(Nc3ccc(N4CCNCC4)cn3)nc2n(C2CCCC2)c1=O`, the GI50 is 3.53 µM and the TGI turned out to be 21.4 µM.
`COc1cc(C(=O)O[C@H](C(=O)NCCCCNC(=O)[C@@H](OC(=O)c2cc(OC)cc3c(C)cccc23)[C@]2(C)CO2)[C@]2(C)CO2)c2cccc(C)c2c1`: the GI50 was 0.458 µM and the TGI is 1.44 µM.
`CSc1nnc(C(C#N)C#N)nn1` registered a TGI greater than 100 µM.
Same read-out and setting: in the case of `CSc1ccc2c(c1)c(CCN)c(C)n2Cc1ccccc1Cl` it was 3.01 µM.
For `CNc1cc(-c2cccc(OC(F)(F)F)c2)nc2ccc(N3CCCC3)cc12`, the GI50 is 1.63 µM and 1.77 µM and 1.79 µM; the TGI was 3.02 µM and 3.25 µM and 3.19 µM.
`CCOC(=O)/C=C1/SC(=Nc2ccc(C#N)cc2)N(Cc2ccco2)C1=O`: the GI50 is 10.9 µM and the TGI was 23.1 µM.
Regarding `COC1/C(=C\C(C)=O)c2ccccc2N1C(C)=O` (stereo unspecified), the TGI is greater than 100 µM.
Molecule `COc1cc(/C=C/C(=N\NC(N)=S)c2sc(NNC(C)=O)nc2C)ccc1O` had a TGI greater than 100 µM.
Turning to `Cc1cc(Br)ccc1N=Nc1c(C)nn(-c2ccccc2)c1-c1ccccc1`, the TGI was greater than 100 µM.
Molecule `COc1cccc(OC)c1NC(=O)C(=O)Nn1c(NNC(=O)c2ccncc2)nc2ccccc2c1=O` gave a TGI greater than 100 µM.
`CSc1nc(NCc2ccccc2)c2cnn(COCCO)c2n1` returned a TGI greater than 100 µM.
The molecule `C=CCSC(C)=O` came in with a TGI greater than 100 µM.
With `CC(=O)OCC1OC(n2c(=S)n(-c3ccccc3)c(=O)c3cc(Br)ccc32)C(OC(C)=O)C1OC(C)=O` (stereo unspecified), the TGI was greater than 100 µM.
`CN(C)CC1CCC/C(=C\c2ccc(OC(=O)/C=C/c3ccc(Cl)cc3)cc2)C1=O` (stereo unspecified) registered a TGI of 50 µM.
`Cc1ccnc(Nc2[nH]c(C(=O)c3ccc(Cl)cc3)c(N)c2C(=S)Nc2ccccc2)c1` displayed a TGI of 51.7 µM.
The molecule `O=S(=O)(/N=C(\NO)Nc1ccc(Cl)cc1)c1cc2ccccc2s1` showed a TGI of 30.7 µM.
`N#CC1=C(N)N(/N=C/c2ccco2)C(c2ccco2)C1(C#N)C#N` (stereo unspecified) returned a TGI of 33.4 µM.
`COc1cc(S(=O)(=O)Nc2ccc(-c3csc(N4C(=O)CSC4c4ccccc4O)n3)cc2)ccc1Cl` (stereo unspecified) displayed a TGI greater than 100 µM.
The same measure, in the same setting: in the case of `CC(C)C(C(=O)N(C)[C@H](C(=O)N1CCC[C@H]1C(=O)N(C)[C@@H](Cc1ccccc1)C(=O)OCc1ccccc1)C(C)C)N(C)C(=O)[C@@H](NC(=O)OC(C)(C)C)C(C)C` (stereo partly specified) (Boc-V[ξNMeV][NMeV]P[NMeF]-OBn) it was greater than 31.6 µM; in that of `CN(C)CCCn1c(Cn2nc3ccccc3n2)nc2cc(C(F)(F)F)ccc21`, greater than 100 µM.
Take `FC(F)(F)c1cccc(-c2[nH]ncc2-c2nnnn2-c2ccccc2)c1`: the GI50 is 10.6 µM and the TGI turned out to be 29.8 µM.
Consider `CC(=O)C1C(=O)C(=O)N(CCN2C(=O)C(=O)C(C(C)=O)C2=O)C1=O` (stereo unspecified), for which the TGI was greater than 100 µM.
As for `COc1ccc2c(c1)nnc1c3cccnc3[nH]c21`, the GI50 is 10.1 µM and 8.36 µM; the TGI is 50 µM and 38.2 µM.
`COC(=O)C(=O)C(C(=O)OC)C(=O)C(=O)Nc1c(Cl)cc([N+](=O)[O-])cc1Cl` (stereo unspecified) came in with a TGI greater than 100 µM.
Same read-out and setting: next, `O=c1c2c3c(sc2nc2n1NC=NN2)CCCC3`: greater than 100 µM.
As to `CSc1ccc(C(=O)/C=C/c2ccc(Cl)cc2Cl)cc1`, the GI50 was greater than 100 µM and the TGI is greater than 100 µM.
Molecule `Cc1cc(C)n(-c2nc(C)c(CCO)c(=O)[nH]2)n1` showed a TGI greater than 100 µM.
With `Cc1c(C(N)=O)sc2nc(C)n(/N=c3\scc(-c4ccccc4)n3Cc3ccccc3)c(=O)c12`, the GI50 was 3.71 µM and the TGI was greater than 100 µM.
On to `COc1ccc(-c2[nH]ncc2Nc2cc(OC)c(OC)c(OC)c2)cc1`, for which the GI50 is greater than 20.4 µM and the TGI is greater than 100 µM.
The molecule `CC#COS(=O)(=O)c1ccc(C)cc1` displayed a TGI greater than 100 µM.
With `CC(=O)[CH-]C(=O)c1ccccc1.CC(=O)[CH-]C(=O)c1ccccc1.CC(=O)[CH-]C(=O)c1ccccc1.[Ga+3]`, the GI50 is 24.8 µM and the TGI is 64 µM.
With `O=c1[nH]c2ccc(CC(=S)N3CCOCC3)cc2o1`, the TGI was greater than 100 µM.
`CC(NNC(=O)c1ccncc1)c1cccc(C(F)(F)F)c1` (stereo unspecified) gave a TGI greater than 100 µM.
Turning to `O=S(=O)(c1ccccc1)c1ccc(-c2nc(-c3ccc4c(c3)Sc3ccccc3S4)cs2)cc1`, the TGI is greater than 100 µM.
For the molecule `O=C1Nc2ccc(Br)cc2/C1=N/N1C(=O)C(=O)N(C2CCCCC2)C1=S`, the TGI was determined as 35.1 µM.
As for `O=C(NCCNCCO)c1ccc(Nc2nc3ccccc3c3occc23)cc1`, the GI50 is 2.69 µM and the TGI amounted to 12.8 µM.
The molecule `N#Cc1ccc(C2SCc3nc4ccccc4n32)cc1` (stereo unspecified) returned a TGI greater than 100 µM.
Turning to `CCC(=O)Nc1nnc(Cc2ccc(OC)c(OC)c2)s1`, the GI50 was greater than 100 µM and the TGI is greater than 100 µM.
For the molecule `O=C1C(=C([O-])c2ccccc2)C(=O)c2ccccc21.O=C1C(=C([O-])c2ccccc2)C(=O)c2ccccc21.[Ni+2]`, the GI50 is 58 µM and the TGI is greater than 100 µM.
Take `CNC(=O)c1cc(Oc2ccc(NC(=O)Nc3cc(C(C)(C)C)nn3-c3ccc4ncccc4c3)c(F)c2)ccn1`: the GI50 is 2.61 µM and 2.66 µM; the TGI is 8.59 µM and 8.14 µM.
As to `NC(=S)N1N=C2c3ccccc3CCC[C@H]2[C@@H]1c1ccccc1`, the TGI came to 60.6 µM.
For the molecule `Clc1ccc(-c2nc(NCc3ccco3)c3ccccc3n2)c(Cl)c1`, the GI50 is 12.2 µM and the TGI is 35.1 µM.
As to `COc1ccc2c(c1)C(=O)c1c-2n(CCCN(C)C)c(=O)c2cc([N+](=O)[O-])ccc12`, the GI50 was 0.0267 µM and the TGI came to 2.53 µM.
In turn, `COc1ccc(/C=C/c2ccnc3ccccc23)cc1OC` came in with a TGI greater than 100 µM.
Consider `COc1ccc(-c2c(-c3ccc(C#N)c(F)c3)nc(N3CCC(N)CC3)n(C)c2=O)cc1F`, for which the GI50 was 22.3 µM and the TGI is greater than 100 µM.
`O=C1CC(c2ccccc2)n2c(nc3ccccc32)N1` (stereo unspecified) showed a TGI greater than 100 µM.
Consider `CCNC(=S)NNC(=O)c1ccccc1Nc1ccccc1C(=O)NNC(=S)NCC`, for which the TGI was greater than 100 µM.
On to `N#CC1=C(N)OC2=C(CCOc3c2ccc2ccccc32)C1c1ccc(Br)cc1` (stereo unspecified), for which the GI50 is 31.9 µM and the TGI turned out to be 89.8 µM.
With `CCOC(=O)N1CCC2(CC1)C[C@@](C(C)=O)(c1ccccc1)C(C)O2` (stereo partly specified), the TGI was greater than 100 µM.
Same read-out and setting: next, `CCOC(=O)C1C(=O)CC(=O)C2CCCCC21` (stereo unspecified): greater than 100 µM.

The values are drawn from PubChem BioAssay (NCI).
